The source holds more than one record for some entries. This list holds those alone. The source may hold further records. Results that share an entry are repeats (runs, samples, wells, individuals or studies).
System: CD2F1 mice, P1798 lymphosarcoma sc, tumor weight T/C
Test: NCI In Vivo Anticancer Drug Screen. Data for tumor model P1798 Lymphosarcoma (subcutaneous) in CD2F1 (CDF1) mice
Details: endpoint: mean tumor weight, higher = larger tumour
Procedure: The antitumor activity of compounds was measured in mice bearing transplantable tumors. Survival or tumor size were measured and the results are expressed as the measurement made in the treated group (T) divided by the measurement made in the vehicle treated control group (C). The tumor model used in this assay is P1798 Lymphosarcoma (subcutaneous) in CD2F1 (CDF1) mice

[1] = dose: 50.0 mg/kg/injection, schedule: Q01DX010 (ip), vehicle: saline
[2] = dose: 0.5 mg/kg/injection, schedule: Q01DX010 (ip), vehicle: saline
[3] = dose: 62.5 mg/kg/injection, schedule: Q01DX010 (ip), vehicle: saline
[4] = dose: 31.3 mg/kg/injection, schedule: Q01DX010 (ip), vehicle: saline
[5] = dose: 5.0 mg/kg/injection, schedule: Q01DX010 (ip), vehicle: saline
[6] = dose: 25.0 mg/kg/injection, schedule: Q01DX010 (ip), vehicle: saline
[7] = dose: 8.0 mg/kg/injection, schedule: Q01DX010 (ip), vehicle: saline

`CC(CCC(C)OS(C)(=O)=O)OS(C)(=O)=O` (stereo not drawn) was tested, and the T/C (dose: 16.0 mg/kg/injection, schedule: Q01DX010 (ip), vehicle: saline) was 28 % of control and 67 % of control.
For `O=C(NCCCCC(NC(=O)OCc1ccccc1)C(=O)NCCCCCCNCCCCCCNC(=O)C(CCCCNC(=O)OCc1ccccc1)NC(=O)OCc1ccccc1)OCc1ccccc1` (stereo not drawn), the T/C [1] was 82 % of control and 120 % of control.
For `OC(CBr)C(O)C(O)C(O)CBr` (stereo not drawn), the T/C (dose: 100.0 mg/kg/injection, schedule: Q01DX010 (ip), vehicle: saline) was 47 % of control and 87 % of control and the T/C (dose: 200.0 mg/kg/injection, schedule: Q01DX010 (ip), vehicle: saline) was 54 % of control and 89 % of control.
In the case of `C[C@]12CC[C@H](OC3OC(CO)C(O)C(O)C3O)C[C@H]1CC[C@@H]1[C@@H]2CC[C@]2(C)[C@@H](C3=CCOC3=O)CC[C@]12O` (stereo partly drawn), the T/C [2] is reported as 26 % of control and 76 % of control.
In the case of `COc1ccc2c(c1OC)C(=O)O[C@@H]2[C@H]1c2c(cc3c(c2OC)OCO3)CCN1C`, the T/C [3] is reported as 61 % of control and 87 % of control.
In the case of `CCCSc1ncnc2nc[nH]c12`, the T/C [4] is reported as 33 % of control and 117 % of control and the T/C [3] is reported as 14 % of control and 93 % of control.
With `CC(=O)OC(C)(C)/C=C/C(=O)[C@](C)(O)[C@H]1[C@H](O)C[C@@]2(C)[C@@H]3CC=C4[C@@H](C[C@H](O)C(=O)C4(C)C)[C@]3(C)C(=O)C[C@]12C` the T/C (dose: 0.4 mg/kg/injection, schedule: Q01DX011 (ip), vehicle: carboxymethylcellulose (CMC)) was 51 % of control and 114 % of control.
For `S=P(N1CCOCC1)(N1CC1)N1CC1`, the T/C (dose: 2.5 mg/kg/injection, schedule: Q01DX010 (ip), vehicle: saline) was 62 % of control and 100 % of control and the T/C [5] was 56 % of control and 98 % of control.
In the case of `C[C@]12CC[C@H](O)C[C@@H]1CC[C@@H]1[C@@H]2C(=O)C[C@]2(C)C3=CC(=O)O[C@H]3C[C@@H]12`, the T/C (dose: 5.0 mg/kg/injection, schedule: Q01DX010 (sc), vehicle: steriod suspending solution) is reported as 57 % of control and 113 % of control.
For `c1ccc(CSc2ncnc3nc[nH]c23)cc1`, the T/C [1] was 60 % of control and 88 % of control.
`CCCNc1ncnc2c1cnn2C` was tested, and the T/C [6] was 69 % of control and 100 % of control.
With `CN(C)c1nc(N(C)C)nc(N(C)C)n1` the T/C (dose: 37.5 mg/kg/injection, schedule: Q01DX010 (ip), vehicle: saline) was 64 % of control and 103 % of control.
For `CS(=O)(=O)OCCCCOS(C)(=O)=O`, the T/C (dose: 12.5 mg/kg/injection, schedule: Q01DX010 (ip), vehicle: saline) was 73 % of control and 105 % of control and the T/C [6] was 65 % of control and 94 % of control.
In the case of `c1ccc(CNc2ncnc3[nH]ncc23)cc1`, the T/C [7] is reported as 81 % of control and 118 % of control.
With `CCn1cnc2c(=S)nc[nH]c21` the T/C (dose: 15.6 mg/kg/injection, schedule: Q01DX010 (ip), vehicle: saline) was 94 % of control and 163 % of control and the T/C [4] was 59 % of control and 94 % of control.
With `Clc1ncnc2nc[nH]c12` the T/C (dose: 60.0 mg/kg/injection, schedule: Q01DX010 (ip), vehicle: saline) was 63 % of control and 117 % of control.
`C[C@H]1C(=O)O[C@@H]2CCN3CC=C(COC(=O)[C@](C)(O)[C@@]1(C)O)[C@H]23` was tested, and the T/C [6] was 74 % of control and 101 % of control.
In the case of `S=c1nc[nH]c2nc[nH]c12`, the T/C (dose: 20.0 mg/kg/injection, schedule: Q01DX010 (ip), vehicle: alkali diluted with saline) is reported as 49 % of control and 100 % of control and the T/C (dose: 40.0 mg/kg/injection, schedule: Q01DX010 (ip), vehicle: alkali diluted with saline) is reported as 76 % of control and 108 % of control.
With `CS(=O)(=O)OCCN(CCOS(C)(=O)=O)c1ccc(N=O)cc1` the T/C [2] was 56 % of control and 90 % of control.
In the case of `Cc1nc(N2CC2)nc(N2CC2)c1[N+](=O)[O-]`, the T/C [5] is reported as 39 % of control and 72 % of control.
In the case of `CN(C)c1ccc(/C=C/c2ccnc3ccccc23)cc1`, the T/C (dose: 10.0 mg/kg/injection, schedule: Q01DX010 (ip), vehicle: saline) is reported as 38 % of control and 81 % of control.
For `Nc1nc(SCc2ccccc2)c2[nH]cnc2n1`, the T/C [7] was 88 % of control and 180 % of control and the T/C (dose: 32.0 mg/kg/injection, schedule: Q01DX010 (ip), vehicle: saline) was 82 % of control and 169 % of control.
`C[C@]12C[C@H](O)[C@H]3[C@@H](CCC4=CC(=O)CC[C@@]43C)[C@@H]1CC[C@@H]2C(=O)CO` was tested, and the T/C (dose: 12.5 mg/kg/injection, schedule: Q01DX010 (sc), vehicle: steriod suspending solution) was 77 % of control and 106 % of control.
In the case of `CC[n+]1c(-c2ccccc2)c2cc(N)ccc2c2ccc(N)cc21`, the T/C [5] is reported as 37 % of control and 116 % of control.
In the case of `OCC1OC(n2cnc3c(Cl)ncnc32)C(O)C1O` (stereo not drawn), the T/C [3] is reported as 55 % of control and 103 % of control, the T/C (dose: 125.0 mg/kg/injection, schedule: Q01DX010 (ip), vehicle: saline) is reported as 60 % of control and 86 % of control and the T/C (dose: 500.0 mg/kg/injection, schedule: Q01DX010 (ip), vehicle: saline) is reported as 70 % of control and 118 % of control.
For `COc1ccc2[nH]c3c(C)c4ccncc4c(C)c3c2c1`, the T/C (dose: 3.13 mg/kg/injection, schedule: Q01DX010 (ip), vehicle: saline) was 36 % of control and 99 % of control.
In the case of `Nc1ncnc2[nH]ncc12`, the T/C (dose: 6.0 mg/kg/injection, schedule: Q01DX010 (ip), vehicle: saline) is reported as 62 % of control and 90 % of control.
With `C1CN1c1nc(N2CC2)nc(N2CC2)n1` the T/C (dose: 0.13 mg/kg/injection, schedule: Q01DX010 (ip), vehicle: saline) was 49 % of control and 100 % of control and the T/C (dose: 0.25 mg/kg/injection, schedule: Q01DX010 (ip), vehicle: saline) was 44 % of control and 90 % of control.

— PubChem BioAssay AID268 (DTP/NCI, 2004)
